Experimental data as given in PubChem BioAssay AID504832 (National Center for Advancing Translational Sciences (NCATS), 2011).
Values joined by “and” are separate entries in the source; they are usually repeats but may differ in a detail not shown here. Equal values may be shown once. Among all 310,000 compounds or so, about 18,000 (5.8%) were called active. This list was built around the results that the source calls inconclusive (neither active nor inactive); the mix of calls is not that of the screen. Calls follow the shape of the dose curve; as a rule, active = well fitted inhibition curve with a large enough effect; inconclusive = small, poorly fitted or top-dose-only effect, or another doubt; inactive = no such curve, though single readings can be large or run the other way. Potencies of inconclusive entries are left out as doubtful fits.

Test: Primary qHTS for delayed death inhibitors of the malarial parasite plastid, 48 hour incubation
Conditions: P. falciparum luciferase growth in erythrocytes; series mostly up to 28.7 µM
In short: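 Compounds are pin-transferred into medium, infected erythrocytes (2% hematocrit, 0.1% parasitemia final) are added, and plates sit one parasite generation at 37 C in 5% CO2. Detection reagent is then added and luminescence measured.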
Potency is read from the fitted curve at half-maximal effect; tags tell the direction and shape of the fitted curve.

SMILES | Potency
C#Cc1ccc([C@H]2C=C(C(=O)NC3CC3)O[C@@H](OCC)[C@@H]2CCCO)cc1 | inconclusive [inhibitor, partial curve, poor fit]
CCN(CC)C(=O)c1ccc2c(=O)n(Cc3ccc4c(c3)OCO4)c(=S)[nH]c2c1 | inconclusive [inhibitor, single point]
C=CCn1c(CCC(O)COCCCCC)n[nH]c1=S (stereo not given) | inactive
Cc1ccc(N/C(C(Cl)=C(Cl)Cl)=C(/Cl)[N+](=O)[O-])c(C)c1 | inconclusive [inhibitor, single point]
CC(=O)C1=C(O)C(=O)N(c2ccc(S(N)(=O)=O)cc2)C1c1cccc([N+](=O)[O-])c1 (stereo not given) | inactive
C=CCn1c(CNC(=O)c2ccccc2F)nnc1SCC(=O)N1CCOCC1 | inactive
COc1cccc(C(=O)N[C@@H](C)C(=O)N2CCC3(CC2)NCCc2[nH]cnc23)c1 | inactive
CN(C)C(=O)Oc1ccc2c(c1)O/C(=C\c1cccc([N+](=O)[O-])c1)C2=O | inactive
O=C(NCC1CCCCC1)c1ccc(=O)[nH]c1 | inconclusive [inhibitor, single point]
O=S(=O)(NCC(c1cccnc1)N1CCN(c2ccc(F)cc2)CC1)c1ccc(F)cc1 (stereo not given) | inconclusive [inhibitor, single point]
CCCCOC(=O)c1ccc(OC(=O)c2cccnc2)cc1 | inactive
O=C(Cn1nc(-c2ccco2)ccc1=O)Nc1ccc(Br)cc1 | inactive
Cc1nc2sc3c(c2c(=O)n1N)CCC3 | inactive
S=C(N/N=C/c1ccc(Br)cc1)N1CCCCC1 | inconclusive [inhibitor, single point]
CCCCNc1nc2ccccc2n1CC(=O)Nc1c(C)cccc1CC | inactive
CCOc1ccc(CCNC(=O)COn2nnc3ccc(S(=O)(=O)N4CCOCC4)cc32)cc1OCC | inconclusive [inhibitor, full curve, poor fit]
COc1cccc(C2c3[nH]c4ccccc4c3C[C@H]3C(=O)N(c4ccccc4C(=O)N4CCC(C(=O)O)CC4)C(=O)N23)c1 (stereo not given in full) | inconclusive [inhibitor, full curve, poor fit]
CCOC(=O)[C@H]1[C@H]2COc3ccc(Br)cc3[C@@H]2N2C(=O)CN(CC3CCCO3)C(=O)[C@@]12C (stereo not given in full) | inconclusive [inhibitor, partial curve, poor fit]
CC(=O)Nc1cc[n+](CC(=O)c2ccc(Cl)cc2)cc1 | inconclusive [inhibitor, single point]
COc1ccc(NS(=O)(=O)c2cc(NC(=O)[C@@H](NC(N)=O)C(C)C)ccc2C)cc1 | inactive
COCCn1c(C)cc(C(=O)COC(=O)c2ccc(NC(=O)CC#N)cc2)c1C | inactive
O=C(NCC(c1cccs1)N1CCOCC1)c1ccccc1NS(=O)(=O)c1cc([N+](=O)[O-])ccc1Cl (stereo not given) | inconclusive [inhibitor, single point]
CC(c1ccccc1)N(C)C(=O)CSc1nnc(C2CC2)n1C1CC1 (stereo not given) | inactive
Cc1cc(C)cc(-n2c(C)c3c(C)nnc(C)c3c2C)c1 | inconclusive [inhibitor, single point]

SMILES | Potency
CCOC(=O)c1sc(=S)n(C)c1NC(=O)c1ccccc1Cl | inactive
COc1cc(CNCc2ccncc2)cc(Br)c1OCc1ccccc1F | inactive
COc1cccc(NC(=O)[C@@H](NC(=O)N2CCn3c2nc2ccccc23)C(C)C)c1 | inconclusive [inhibitor, partial curve]
C=C(C(=O)c1ccccc1)C(C)C(=C)C(=O)c1ccccc1 | inconclusive [inhibitor, single point]
N#CC1=C(N)Oc2cc(N)ccc2C1C1CC=CCC1 (stereo not given) | inconclusive [inhibitor, partial curve, poor fit]
COc1ccc(NS(=O)(=O)c2ccc(N/N=C(\C)c3ccncc3)c([N+](=O)[O-])c2)cc1 | inconclusive [inhibitor, single point]
O=C(N/N=C/c1ccc([N+](=O)[O-])s1)C(O)c1ccccc1 (stereo not given) | active: 4.65 µM
CCOP(=O)(OCC)C(NC(=O)c1ccc(OC)cc1)C(Cl)(Cl)Cl (stereo not given) | inconclusive [inhibitor, single point]
COc1ccc(CN2C3CCCC2CC(NC(=O)c2cccc(F)c2)C3)cc1 (stereo not given) | inconclusive [inhibitor, single point]
O=C1CN(/N=C/c2ccc([N+](=O)[O-])o2)C(=O)N1 | active: 13.5 µM and active: 13.1 µM
CCOc1cc(N2CCOCC2)c(OCC)cc1NC(=O)c1ccc(-n2ccnc2)c([N+](=O)[O-])c1 | inconclusive [inhibitor, partial curve, poor fit]
Cc1cc2nnc(SCC(=O)Nc3cccc(S(=O)(=O)N4CCOCC4)c3)n2c2ccccc12 | inconclusive [inhibitor, partial curve]
O=C(NCCCN1CCCCC1)c1ccc2c(c1)NC(=O)c1ccccc1S2 | inconclusive [inhibitor, partial curve]
O=C(NCCCn1ccnc1)c1cc2nc(-c3ccc(Br)cc3)cc(C(F)(F)F)n2n1 | inconclusive [inhibitor, single point]
CCNC(=S)Nc1c(C)n(C)n(-c2ccccc2)c1=O | inactive
COc1ccc(Cn2c(C)c(C)c(C#N)c2NC(=O)Nc2ccccc2)cc1 | inconclusive [inhibitor, single point]
COc1cccc(CNC(=O)Cn2c(=O)n(CCC(=O)N3CCCCC3)c(=O)c3sccc32)c1 | inactive
CC(C)C[C@@H](CSc1ccccc1)N1CCN(CCc2ccccc2)CCC1=O | inconclusive [inhibitor, full curve, poor fit]
CS(=O)(=O)c1ccc(C(=O)OCC(=O)NC(=O)C2CCCCC2)cc1[N+](=O)[O-] | inconclusive [inhibitor, single point]
O=C(COc1ccc(S(=O)(=O)NC2CCCCC2)cc1)NCCC1=CCCCC1 | inconclusive [inhibitor, single point]
Cc1ccc2nc3c(cc2c1)c(NS(=O)(=O)c1ccccc1)nn3CC(C)C | inactive
COc1ccc(N2CCN(c3cnc4ccccc4n3)CC2)cc1 | inactive
COc1cccc(NC(=S)N(Cc2cccc(Br)c2)CC2CCC(C(=O)O)CC2)c1 (stereo not given) | inactive
CCN(CC)CC(=O)c1ccc(-c2ccccc2)cc1 | inconclusive [inhibitor, single point]

SMILES | Potency
NC(N)=NC(=O)c1nc(Cl)c(N2CCCCCC2)nc1N | active: 4.65 µM
CC1CN(S(=O)(=O)c2cccc(C(=O)Nc3ccccc3N3CCCC3)c2)CC(C)O1 (stereo not given) | inconclusive [inhibitor, partial curve, poor fit]
COC(=O)/C(=C(/F)Sc1cc(C)c(O)c(C)c1)C(F)(F)F | active: 9.28 µM
CCOC(=O)C1CCN(C(=O)CSc2nc3ncccc3[nH]2)CC1 | inactive
CC(C)Cn1nc(NC(=O)C2CCCO2)c2cc3ccccc3nc21 (stereo not given) | inconclusive [inhibitor, single point]
Cc1ccc(CNC(=O)c2oc3ccc(S(=O)(=O)N4CCOCC4)cc3c2C)cc1 | inconclusive [inhibitor, full curve]
COc1cccc(-c2cc(C(=O)NCc3ccco3)c3ccccc3n2)c1 | inconclusive [inhibitor, full curve]
COc1cc(O)c(C(CCN2CCCC(C)C2)c2ccc(N(C)C)cc2)c(OC)c1 (stereo not given) | active: 0.738 µM
Cc1noc(/C=C/N(C)C)c1S(=O)(=O)N(C)CC(=O)NC1CCCCC1 | inconclusive [inhibitor, single point]
Cc1oc2ccc(NS(=O)(=O)c3ccc(C(C)(C)C)cc3)cc2c1C(=O)Nc1ccccc1 | inconclusive [inhibitor, single point]
CCCCn1c(N)c(N(CCOC)C(=O)c2cc(S(=O)(=O)N3CCOCC3)ccc2F)c(=O)[nH]c1=O | inactive
Nc1nc(-c2ccco2)cs1 | inactive
CC(=O)c1ccc(N2CCN(S(=O)(=O)c3ccc4c(c3)NC(=O)CO4)CC2)cc1 | inactive
O=C(NCc1ccccc1)C1CCN(S(=O)(=O)c2ccc(Cl)cc2)CC1 | inconclusive [inhibitor, partial curve]
O=S(=O)(c1cccs1)N1CN(C2CCCC2)c2nc3ccccc3nc21 | inconclusive [inhibitor, single point]
CC(C)c1cc(Nc2cccc(O)c2)cc(C(C)C)c1O | inconclusive [inhibitor, partial curve, poor fit]
CN1CCc2c(C#N)c(N3CCOCC3)nc(NCC3CCCO3)c2C1 (stereo not given) | inconclusive [inhibitor, full curve, poor fit]
COc1cccc(-c2cc(C(=O)NCCCn3ccnc3)c3ccccc3n2)c1 | inconclusive [inhibitor, single point]
CC1Nc2ncnc(N3CCc4ccccc4C3)c2N(Cc2ccc(Br)cc2)C1=O (stereo not given) | active: 2.08 µM
CCCCC1CCC(C(=O)N(CCCC)c2c(N)n(CCCC)c(=O)[nH]c2=O)CC1 (stereo not given) | inactive
O=C(NC(O)C(=O)c1ccccc1)c1ccccn1 (stereo not given) | inactive
C/C(=N\NC(=S)NCc1ccccc1)c1ccc(C#N)cc1 | inconclusive [inhibitor, single point]
